Results published in ChEMBL document CHEMBL4888484, “Replenishing the malaria drug discovery pipeline: Screening and hit evaluation of the MMV Hit Generation Library 1 (HGL1) against asexual blood stage Plasmodium falciparum ,using a nano luciferase reporter read-out” (2022).
About 540 (0.36%) of roughly 150,000 compounds showed an effect of 50% or more. The list shows a part of the results.

tested on: Plasmodium falciparum; assay: Primary screen in NF54 nanoGlo assay, in single point, at 2uM, 72h; a lower Z score goes with more inhibition; format: functional, Erythrocyte; settings: timepoint 72 hour

Compound | % Inhibition | Z score
CC(C)[C@H](Nc1ccc(C(F)(F)F)cc1Cl)C(=O)Nc1sc2c(c1C(N)=O)CCC2 | -8% | 1.13
Cc1ccc(-c2noc(CN3N=NC4C(=O)N(c5ccccc5)C(=O)C43)n2)cc1C (centres undefined) | -5% | 0.77
C=Cn1cc(CNCc2nnc3n2CCCCC3)cn1 | -1% | 0.06
Cc1nc(C(C)C)sc1CNC(=O)c1ccc(-c2cccc(O)n2)cc1 | -3% | 0.5
CN(Cc1ccco1)C(=O)C[C@]1(c2ccccc2)CC(=O)N(CCCOc2cccnc2)C1=O | -11% | 2.02
O=C(c1ccco1)N1CCN(Cc2nnc3n2CCCCC3)CC1 | -12% | 2.25
CCOc1cccnc1C(=O)N1CCN(CC(F)(F)C(F)F)CC1 | -8% | 1.15
CCCc1nnc(N2C[C@@H]3CN(C4CCCC4)C[C@]3(C(=O)O)C2)s1 | 11% | -1.42
COc1ccc(F)cc1S(=O)(=O)N1CC2(C[C@@H](C(=O)N3CCCC3)N(C)C2)C1 | -20% | 2.32
Cc1ccc(-c2nc(C(=O)NCc3ccc(Cl)cc3)no2)cc1 | 12% | -1.07
C=C[C@H]1CC[C@@]2(c3ccccc3)CC(=O)N(Cc3ccccc3)[C@@H]12 | -43% | 5.02
Cc1nc(N2CCC(N[C@@H]3COC4(CCCC4)C3)CC2)c2ccsc2n1 | -2% | 0.35
Cn1nccc1CCN(CCO)Cc1cccc(Br)c1 | 1% | -0.14
CCOC(=O)C1CCN(C(=O)c2ccc(-n3cccn3)nn2)CC1 | -10% | 1.88
CC1CCC(NC(=O)COCC(=O)NC2CCC(C)CC2)CC1 (centres undefined) | -13% | 1.2
O=C1CO[C@H]2CCN(S(=O)(=O)CCc3cccc(Cl)c3)C[C@@H]2N1 | 17% | -2.01
COc1ccc(C(=O)N2c3ncnn3C(c3ccccc3)CC2C)cc1 (centres undefined) | 33% | -3.76
CCCN1CCC[C@H](Nc2ccncc2F)C1 | -10% | 1.86
COc1cccc(S(=O)(=O)N2CCc3[nH]cnc3C2)c1 | -13% | 1.49
CNC(=O)Cc1ccc(Cl)cc1Cl | -9% | 1.16
COc1ccc(-c2ccc(CN3CCN(C)CC3)cn2)cc1C | 5% | -0.7
Cc1ncc2c(n1)CC[C@H](NC(=O)c1ccc3c(c1)CC(C)(C)O3)C2 | 30% | -3.44
O=C(c1noc2c1CCCC2)N1CCN(c2ccc(-n3cncn3)nn2)CC1 | 21% | -2.61
CCC(C)N(Cc1ccsc1)CC(O)COCC(C)C (centres undefined) | 3% | -0.41
COc1cccc(CNC(=O)CCc2ccc3c(ccn3C)c2)c1 | -12% | 1.37
Cc1[nH]c(=O)c(C(=O)N2CCN([C@H]3CCCC[C@@H]3O)CC2)c(C)c1Cl | -20% | 2.74

Compound | % Inhibition | Z score
CC(=O)Nc1c(-c2ccccn2)nsc1C(=O)NCc1cccc(Cl)c1 | -12% | 2.11
CO[C@@H](C)c1nc(C2CCOCC2)nn1Cc1ccc2c(c1)OCO2 | -8% | 1.1
CC(C(=O)N1CC(C(C)C)c2ccccc21)c1cnccn1 (centres undefined) | -2% | 0.26
C[C@H](O)CNC(=O)Cn1nc(-c2ccccc2)n(CCc2ccccc2)c1=O | -3% | 0.56
CN1CC2(C1)CN(Cc1ccccc1)C[C@@H]1COCCN12 | -14% | 2.46
N#CC[C@]1(O)CCN(S(=O)(=O)c2c[nH]c3ncc(Br)cc23)C1 | -4% | 0.49
CCCN(CCC)c1cc(C)nc2nc(-c3ccccc3)nn12 | -4% | 0.77
O=C1CC[C@@]2(CCCN(C(=O)CCn3cc(Cl)cn3)C2)CN1CCO | -1% | 0.21
Cc1cc(C(=O)N[C@H](c2ccncc2)C2CC2)ncc1C(N)=O | 8% | -1.06
Nc1ncccc1CN1CCC2(CCC(=O)N(CCc3ccncc3)C2)CC1 | -8% | 1.52
CO[C@H]1COC[C@@H]1NC(=O)c1ccccc1C#N | -6% | 0.73
CC1CCCC(NC(=O)c2cc(S(=O)(=O)N3CCCC3)c[nH]2)C1C (centres undefined) | -8% | 0.77
Cc1nc(CNC(=O)c2ccc3c(c2)CN(CCc2ccncc2)C3=O)no1 | 3% | -0.43
O=S(=O)(CC1CCCC1)N[C@H]1COC[C@@H]1O | -10% | 1.35
NC(=O)CN1C[C@H](Nc2ccc(C(F)(F)F)cn2)[C@@H](C2CC2)C1 | 5% | -0.7
O=C(c1ccccc1Cl)N1CCC[C@H](OCc2cc(F)cc(F)c2)C1 | -9% | 1.45
N[C@@H]1CN(c2nc(C3CCCC3)ns2)C[C@H]1c1ccccc1 | 3% | -0.42
COCc1nc(-c2cccnc2)nn1C1CCCCC1 | -15% | 2.12
CC(=O)N(c1nc(CNc2ccc(CC#N)cc2)cs1)C1CC1 | -6% | 0.65
OC1CCCCC1CCCNc1nnc(C(F)(F)F)s1 (centres undefined) | -19% | 1.66
C[C@H](NC(=O)CON=C(N)CN1CCN(c2ccccc2)CC1)c1ccc(F)cc1 | -6% | 0.75
c1cc2occc2c(NCCc2cn3c(n2)CCCC3)n1 | -15% | 1.3
CN(C(=O)CC#N)C1CCCC1c1ccc(C(F)(F)F)cc1 (centres undefined) | -15% | 1.76
C[C@H](c1ccccc1)c1cc(C(=O)N(C)Cc2ncc[nH]2)on1 | 1% | -0.14
CC(=O)N(CCc1ccc(C)[n+]([O-])c1)c1ccccc1 | -11% | 1.42
COc1cc(F)cc2sc(NC(=O)[C@@H](NC3CCOCC3)C(C)C)nc12 | -1% | 0.13
